Experimental data: the BET-seq Pho4 binding data (Le et al. 2018)
The list shows a part of the results. The energies were worked out here from pooled read counts, against the library average; single values are noisy.

Biological target: T1, Pho4 (S. cerevisiae) (UniProt P07270)
T1 sequence: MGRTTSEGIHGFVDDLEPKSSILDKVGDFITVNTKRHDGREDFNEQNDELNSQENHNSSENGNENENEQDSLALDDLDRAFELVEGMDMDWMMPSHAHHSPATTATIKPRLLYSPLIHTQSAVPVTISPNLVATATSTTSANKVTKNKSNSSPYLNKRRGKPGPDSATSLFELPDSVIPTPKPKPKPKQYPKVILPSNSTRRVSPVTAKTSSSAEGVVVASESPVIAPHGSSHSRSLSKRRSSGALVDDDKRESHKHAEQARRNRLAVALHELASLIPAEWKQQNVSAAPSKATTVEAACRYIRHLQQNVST
Experiment: relative binding free energy (BET-seq); higher = weaker binding
Conditions: reference: library average

Sequence | relative binding free energy
CAGTTCACGTGGAGGG | 0.06 kcal/mol
GTTAGCACGTGATCAG | 0.1 kcal/mol
TAAGACACGTGGTCTG | -0.08 kcal/mol
AATCGCACGTGAAGTG | 0.39 kcal/mol
AATTACACGTGATAGT | 0.15 kcal/mol
TTCGACACGTGAGGGA | 0.19 kcal/mol
TAGTGCACGTGCGAGT | -0.05 kcal/mol
GGGATCACGTGTTCGT | 0.06 kcal/mol
GGTAACACGTGACGGG | 0.23 kcal/mol
GTTGTCACGTGTAAGG | 0.27 kcal/mol
GTCTGCACGTGTGGGG | 0.15 kcal/mol
AGTGTCACGTGCGTAG | 0.01 kcal/mol
GGGGGCACGTGTGCAA | -0.3 kcal/mol
TTGGACACGTGTATCT | 0.16 kcal/mol
TTATGCACGTGCGAGT | -0.1 kcal/mol
GGCGACACGTGTTATT | 0.21 kcal/mol
TACATCACGTGTAAGG | 0.19 kcal/mol
GAGGGCACGTGTGGCA | 0.02 kcal/mol
CAAGGCACGTGGAAGG | -0.06 kcal/mol
CTTTGCACGTGGGAAG | -0.04 kcal/mol
TTATTCACGTGTTCTT | 0.27 kcal/mol
TTTTTCACGTGATGGA | 0.47 kcal/mol
TGATTCACGTGGGACT | 0.26 kcal/mol

Sequence | relative binding free energy
ATATGCACGTGTAGTA | -0.22 kcal/mol
TATTGCACGTGGCTTA | -0.08 kcal/mol
TGTCTCACGTGGACGT | 0.27 kcal/mol
GGGAACACGTGGGTGC | 0.01 kcal/mol
TGCTTCACGTGGACGT | 0.4 kcal/mol
CGATTCACGTGGGTTG | 0.13 kcal/mol
TAGGGCACGTGGAGCG | 0 kcal/mol
GGAGTCACGTGTTTTA | 0.07 kcal/mol
TCCGTCACGTGGGCTT | 0.17 kcal/mol
GGTCTCACGTGGTTAG | 0.2 kcal/mol
GGGTTCACGTGCGATT | 0.31 kcal/mol
GGCCTCACGTGGTAGT | 0.19 kcal/mol
TCGCGCACGTGTGGGC | 0.03 kcal/mol
GCTGGCACGTGTGAGT | -0.02 kcal/mol
TTTTTCACGTGCGCGT | 0.23 kcal/mol
GAAGTCACGTGCGTGG | 0.01 kcal/mol
AGTCTCACGTGAGAGT | 0.57 kcal/mol
AGTGTCACGTGGTTTC | 0.14 kcal/mol
GTGATCACGTGTTGAT | 0.01 kcal/mol
GTTGTCACGTGTTGAT | 0.06 kcal/mol
AGGGGCACGTGTATGC | -0.14 kcal/mol
TCTGGCACGTGTGCGG | 0 kcal/mol
CTAGTCACGTGTGGTG | 0.01 kcal/mol

Sequence | relative binding free energy
GATAGCACGTGTAGGT | 0.05 kcal/mol
CGTTGCACGTGGAGGT | 0.06 kcal/mol
TATGGCACGTGATAGG | -0.15 kcal/mol
GTGGACACGTGGGTAG | 0.01 kcal/mol
AAGTGCACGTGGCATT | -0.09 kcal/mol
TGGCACACGTGAGTGT | 0.27 kcal/mol
GGTTGCACGTGGAGGG | -0.04 kcal/mol
TGGCCCACGTGGGGGA | -0.32 kcal/mol
AGGCTCACGTGGTGAT | 0.05 kcal/mol
TACATCACGTGATTGT | 0.18 kcal/mol
GGATACACGTGTGTAA | 0.07 kcal/mol
AGAGGCACGTGTAGAG | -0.1 kcal/mol
TATTGCACGTGTATAT | -0.01 kcal/mol
TGTCTCACGTGGAGAG | 0.06 kcal/mol
GGATACACGTGAGTGG | 0.21 kcal/mol
AGTTGCACGTGTTTAG | 0.03 kcal/mol
TCATTCACGTGCTGGT | 0.27 kcal/mol
ATTGCCACGTGTTAGG | -0.16 kcal/mol
TTTGTCACGTGAGGAT | 0.3 kcal/mol
AATATCACGTGTCGTG | 0.1 kcal/mol
CGGGTCACGTGGGTAC | -0.01 kcal/mol
TAAATCACGTGTGGCG | 0.24 kcal/mol
AGGGACACGTGCTTGA | -0.07 kcal/mol

Sequence | relative binding free energy
AGTGACACGTGTGGTG | 0.04 kcal/mol
TGTATCACGTGGTTTG | 0.11 kcal/mol
GTAATCACGTGGGGGC | 0.06 kcal/mol
TTTTGCACGTGAGTGA | 0.21 kcal/mol
TTGGACACGTGATGTG | 0.19 kcal/mol
TTTTCCACGTGTTGTA | -0.01 kcal/mol
AGAGGCACGTGGGGGG | -0.22 kcal/mol
TTCGTCACGTGGGGCA | -0.13 kcal/mol
TTCTGCACGTGGGGAT | -0.02 kcal/mol
TGGTTCACGTGGGGGG | 0.2 kcal/mol
TGTTGCACGTGTATGA | 0 kcal/mol
TGTGGCACGTGCTACG | -0.2 kcal/mol
TTTAACACGTGATGTT | 0.25 kcal/mol
TTAAACACGTGTGTAA | 0.05 kcal/mol
TAAAACACGTGATGGA | 0.25 kcal/mol
AGGTGCACGTGGTTGC | -0.07 kcal/mol
TATGGCACGTGACAGT | -0.02 kcal/mol
GGAGACACGTGGTGCT | 0.06 kcal/mol
GGGCGCACGTGGATGA | -0.11 kcal/mol
GAATGCACGTGTGTAT | 0.21 kcal/mol
GCTTTCACGTGAATGT | 0.44 kcal/mol
AGGGACACGTGTTACG | 0.08 kcal/mol
ATGTTCACGTGTCGGT | 0.43 kcal/mol

Sequence | relative binding free energy
TACAGCACGTGTAGTT | -0.01 kcal/mol
GGTGACACGTGGAGGT | 0.05 kcal/mol
AAAGGCACGTGCGTTT | -0.15 kcal/mol
GCGTGCACGTGTTGTG | -0.06 kcal/mol
TATAGCACGTGTGTGT | 0.01 kcal/mol
TCCTTCACGTGGTGTA | 0.26 kcal/mol
ATGTCCACGTGATATT | 0.15 kcal/mol
AGTATCACGTGGTGAG | 0.06 kcal/mol
GTTCTCACGTGGTGTG | 0.19 kcal/mol
TGGTACACGTGGAGCA | -0.03 kcal/mol
GGCTTCACGTGGAGTA | 0.22 kcal/mol
CGTGGCACGTGTTGAT | -0.05 kcal/mol
GTTAACACGTGTGCGT | 0.14 kcal/mol
ATTAACACGTGTTGGT | 0.06 kcal/mol
TGGTTCACGTGGGATG | 0.28 kcal/mol
TAGATCACGTGTGTTG | 0.04 kcal/mol
TGTTACACGTGATTGA | 0.06 kcal/mol
GTTGACACGTGAATAG | 0.06 kcal/mol
GGCGTCACGTGTAAGG | 0.26 kcal/mol
TTTATCACGTGTGCAA | 0.01 kcal/mol
ACGGTCACGTGTTGAT | 0.03 kcal/mol
TGTTTCACGTGTCGCG | 0.22 kcal/mol
TTGTACACGTGTAGGA | 0.05 kcal/mol
